Measurements: the supplement of paper PMC11417369
± gives the standard deviation of the averaged measurements. The list shows a part of the results.

The sequences below were run on PfAP2-G AP2 domain (GST-tagged) (assay: gcPBM binding intensity (ln(normalized median fluorescence intensity)); higher = stronger DNA binding).
How it was run: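 An Agilent 4 × 180k array carrying primer-extended double-stranded 36-bp intergenic genomic probes and negative controls received GST-tagged P. falciparum DNA-binding domains expressed in E. coli, about 25 μg on average, for 1 h. The binding buffer contained 1× PBS, 1% milk, 0.2 mg/ml BSA, 0.5% salmon testes DNA and 0.03% Triton X-100. Binding intensity is the top Masliner-normalised natural-log median intensity across replicate spots of either probe orientation, read after Alexa488 anti-GST antibody staining and a 488 nm scan.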
In the case of AAAATGTAGAAATGGGTGCACACACATATATAATAT, the “gcPBM binding intensity (ln)” value is reported as 10.6 ± 0.39.
“AACTGTACAATTTTTGTGCACAATAATTATTAATAT [GTGCAC_site9462]” was tested, and the “gcPBM binding intensity (ln)” value was 11.5 ± 0.81.
“TGCTATATAATATGAGCACACATAAGATTTGGTGTT [CACACA_site8148]” was tested, and the “gcPBM binding intensity (ln)” value was 9.985 ± 0.007.
In the case of “ATATTTTTATTTAAACGTACATACACGTTGAAAAGA [XGTACX_site4567]”, the “gcPBM binding intensity (ln)” value is reported as 11.3 ± 0.95.
With “TTTTCAATTAATAATACACACATGTATATATCATTA [CACACA_site7539]” the “gcPBM binding intensity (ln)” value was 9.77 ± 0.15.
With “TAATGCATTATTAGAATACACACCATACGCATATTT [CACACA_site289]” the “gcPBM binding intensity (ln)” value was 10.07 ± 0.035.
In the case of “TGATGTTGTAACAAAAGTACACACACATTTCTATAA [XGTACX_site5837]”, the “gcPBM binding intensity (ln)” value is reported as 11.3 ± 0.98.
In the case of “TTTTTCTTTTGATGTTGTACATATATATTATATATA [XGTACX_site2754]”, the “gcPBM binding intensity (ln)” value is reported as 11.3 ± 0.84.
In the case of “AAGAAAAAAAAAAAAAATATATATATAAGAACATAT [TGCATGCA_negctrl_site131]”, the “gcPBM binding intensity (ln)” value is reported as 9.53 ± 0.2.
In the case of “GATAAAACGTTATGCACACGTACGTGGGTATTTATA [CACACA_site4954]”, the “gcPBM binding intensity (ln)” value is reported as 11.1 ± 0.43.
With “TTTAATAATTATTAAAGTACAAAATAAATATTGAAT [XGTACX_site7538]” the “gcPBM binding intensity (ln)” value was 11 ± 0.62.
“TATAAAAAAATATATATATATATATATATATAAATA [TGCATGCA_negctrl_site22]” was tested, and the “gcPBM binding intensity (ln)” value was 9.6 ± 0.36.
With “AACTATAAAAAAAATACACACATTACCAAAAATATA [CACACA_site1529]” the “gcPBM binding intensity (ln)” value was 9.96 ± 0.014.
“AATCTGATTTGTATATGTACACAAATATTTTTATTT [XGTACX_site5295]” was tested, and the “gcPBM binding intensity (ln)” value was 11.5 ± 0.91.
With “GTGAATGATTTAAGTACACACCGGTATTTATTCAAA [CACACA_site4950]” the “gcPBM binding intensity (ln)” value was 11.4 ± 0.98.
For “AAAAAAAAAAATAAATGTACAAAATAATGGGGAACA [XGTACX_site8723]”, the “gcPBM binding intensity (ln)” value was 10.7 ± 0.28.
“AAAAAAAAAAAATACACACACACATATTTATTTATA [CACACA_site6483]” was tested, and the “gcPBM binding intensity (ln)” value was 9.94 ± 0.16.
In the case of TGTATTAAAAATTTGGTGCAACTTTTACATAATAAT, the “gcPBM binding intensity (ln)” value is reported as 10 ± 0.16.
For “TTTTTTTTTTTTTTTTGTACGAATAAACAAGTTATT [XGTACX_site5473]”, the “gcPBM binding intensity (ln)” value was 10.8 ± 1.2.
For “ATATATATATATATATGTACATATTTTATTTAATTT [XGTACX_site1807]”, the “gcPBM binding intensity (ln)” value was 11.2 ± 0.69.
For ATACACAAGAATATGTTGCACTTTTATATTCGTATG, the “gcPBM binding intensity (ln)” value was 10.06 ± 0.028.
In the case of “AATAAAATTGACCATTCACACAAGAAAAATTAATCA [CACACA_site5636]”, the “gcPBM binding intensity (ln)” value is reported as 10.5 ± 0.47.
In the case of “GATTCGATCTATATATGTACACATAAATATTTTTTG [XGTACX_site7015]”, the “gcPBM binding intensity (ln)” value is reported as 11.5 ± 1.
“TATATATTTATTTATTGTACACTCTTTAAGAATACA [XGTACX_site2569]” was tested, and the “gcPBM binding intensity (ln)” value was 11.2 ± 0.72.
In the case of “TATATATATATATATATATATATATATGTGTATGTA [TGCATGCA_negctrl_site255]”, the “gcPBM binding intensity (ln)” value is reported as 10.1 ± 0.61.
With “AATATAAAAATGTTTACACACACACCGAAATATATT [CACACA_site8800]” the “gcPBM binding intensity (ln)” value was 10.2 ± 0.14.
With “TATGCCATGGCATAATGTACATAAGTGACCTCATAA [XGTACX_site1294]” the “gcPBM binding intensity (ln)” value was 11.1 ± 0.7.
With “AATATTTATATTAACTGTACAGAAAATATCTTTGCT [XGTACX_site8130]” the “gcPBM binding intensity (ln)” value was 11.1 ± 0.71.
With “CATAAGATTTTTACATGTACATATTTATAATATATT [XGTACX_site6578]” the “gcPBM binding intensity (ln)” value was 11.3 ± 0.88.
For “GATATATAAATTGACACACACATATATACCTATATA [CACACA_site6689]”, the “gcPBM binding intensity (ln)” value was 10.1 ± 0.2.
“TTCTTTTTTTTTTTTTCATGTATATTAAACTTTTCA [TGCATGCA_negctrl_site592]” was tested, and the “gcPBM binding intensity (ln)” value was 9.74 ± 0.22.
With “TATAATGTTGATGATAGTACGTATGAGTTCAAAAAA [XGTACX_site3651]” the “gcPBM binding intensity (ln)” value was 11.2 ± 0.65.
For “AGAAATTAAATGTAAGCACACATAAATTATACACAT [CACACA_site9098]”, the “gcPBM binding intensity (ln)” value was 10.1 ± 0.12.
“AAAAAATTATACCAGTGTACTTTTTTGGTTTTTCTT [XGTACX_site2601]” was tested, and the “gcPBM binding intensity (ln)” value was 11.5 ± 0.99.
“ATATATTTAAAAAAATGTACAAATCATAAATGCAAG [XGTACX_site4230]” was tested, and the “gcPBM binding intensity (ln)” value was 10.8 ± 0.42.
In the case of “TCCTTACACACACTTTTTTTTTTTTTTTTTTCTACA [GTGCAC_negctrl_site263]”, the “gcPBM binding intensity (ln)” value is reported as 10 ± 0.12.
In the case of “ATATATTATCAACTTACACACAGAAAACTATAATAA [CACACA_site6275]”, the “gcPBM binding intensity (ln)” value is reported as 10.07 ± 0.014.
“CTTTTTCCTTTATAAAGTACTTAAAATATTTAGATA [XGTACX_site4259]” was tested, and the “gcPBM binding intensity (ln)” value was 11.1 ± 0.59.
For “CTCGATCAAGTGTATGCATGTACCAGTGAACAAAAA [TGCATGCA_site635]”, the “gcPBM binding intensity (ln)” value was 10.9 ± 0.34.
In the case of “AAAAGAATTAATTTATGTACTAATTTCAAGAAATAA [XGTACX_site3241]”, the “gcPBM binding intensity (ln)” value is reported as 11.1 ± 0.69.
With “TTTATAAAAATATACACACATACAAATATGCATATA [CACACA_site712]” the “gcPBM binding intensity (ln)” value was 9.91 ± 0.057.
In the case of “AAAATACACGCATACACACACACACCCACCCATATA [CACACA_site639]”, the “gcPBM binding intensity (ln)” value is reported as 10.4 ± 0.13.
For “AAAAAAAAAAAAAAAACACACACATACACCCAAAAA [CACACA_site7910]”, the “gcPBM binding intensity (ln)” value was 10.6 ± 0.28.
“TTACATATGGTTAGTAGTACATATATAAATGTAAAT [XGTACX_site7206]” was tested, and the “gcPBM binding intensity (ln)” value was 11.4 ± 0.87.
With “TTTATATGTATTAAGTGTACACATATAATCTATCTT [XGTACX_site4922]” the “gcPBM binding intensity (ln)” value was 11.6 ± 0.98.
“TAATAATATATATGAAGTACAATAACTTTTTGTTTT [XGTACX_site292]” was tested, and the “gcPBM binding intensity (ln)” value was 11.3 ± 0.82.
“GTCAAATTTTTGTGCACACATATATAGTTATTATTA [CACACA_site2241]” was tested, and the “gcPBM binding intensity (ln)” value was 10.6 ± 0.34.
With “TTTCTTTTCTCAGAAATTATTCAAATGAAAAAAAAT [TGCATGCA_negctrl_site44]” the “gcPBM binding intensity (ln)” value was 9.81 ± 0.16.
With “GTATACACATATATATGTACTTAATTATTTTATGTC [XGTACX_site6707]” the “gcPBM binding intensity (ln)” value was 11.2 ± 0.7.
“CAAAGGGAAATTAACACACACATATATATATATATA [CACACA_site2453]” was tested, and the “gcPBM binding intensity (ln)” value was 9.98 ± 0.43.
In the case of “AAACATGATTATTATAGTACAATTATAATTATTATA [XGTACX_site2590]”, the “gcPBM binding intensity (ln)” value is reported as 10.8 ± 0.59.
For “GTCATAAAAACATATACACACTTGAAATATAAAAAT [CACACA_site5315]”, the “gcPBM binding intensity (ln)” value was 10 ± 0.16.
With “TGTATATATATATAAAGTACATATAATATATATTTG [XGTACX_site5411]” the “gcPBM binding intensity (ln)” value was 11.1 ± 0.61.
With “AAATAAAATTATAACTGTACGTTGTATGAAATAATG [XGTACX_site5462]” the “gcPBM binding intensity (ln)” value was 11.3 ± 0.8.
With “ATTTTTTTACTGCAACCATATTTTTCCCTTTTATTC [CACACA_negctrl_site1282]” the “gcPBM binding intensity (ln)” value was 10.12 ± 0.085.
In the case of “CTGTTTAAAATATAAACACACATTGTTTGCTTTAGA [CACACA_site1301]”, the “gcPBM binding intensity (ln)” value is reported as 9.78 ± 0.042.
With “TCTATAAAGTTCCATACATGCGCCATCATTTATATT [TGCATGCA_site195]” the “gcPBM binding intensity (ln)” value was 10.21 ± 0.021.
